No constants are given. Whether binding was seen depends on the method and setting. In cells and extracts the contact can be indirect. Some entries that bind do so weakly or less than the wild type. Where a sequence is shown, tags or fusion partners need not be part of it.
T1: Thioredoxin-interacting protein (Txnip), N-terminal tandem Strep/FLAG tag (UniProt Q9H3M7)
T1 sequence: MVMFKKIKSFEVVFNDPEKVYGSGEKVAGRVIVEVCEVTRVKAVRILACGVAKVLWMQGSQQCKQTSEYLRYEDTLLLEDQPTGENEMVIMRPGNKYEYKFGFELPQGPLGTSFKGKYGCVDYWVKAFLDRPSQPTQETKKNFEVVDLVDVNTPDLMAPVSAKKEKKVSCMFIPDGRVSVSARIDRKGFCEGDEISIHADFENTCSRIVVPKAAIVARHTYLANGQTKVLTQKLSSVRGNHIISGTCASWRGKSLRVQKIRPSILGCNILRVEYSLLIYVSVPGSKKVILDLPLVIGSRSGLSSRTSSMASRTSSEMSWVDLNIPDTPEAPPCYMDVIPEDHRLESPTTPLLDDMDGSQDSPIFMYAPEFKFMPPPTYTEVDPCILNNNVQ

By UniProt entry, the sequences of proteins in these tests, tags left out. Residues count along the entry.
UniProt Q8NBS9, residues 33-432: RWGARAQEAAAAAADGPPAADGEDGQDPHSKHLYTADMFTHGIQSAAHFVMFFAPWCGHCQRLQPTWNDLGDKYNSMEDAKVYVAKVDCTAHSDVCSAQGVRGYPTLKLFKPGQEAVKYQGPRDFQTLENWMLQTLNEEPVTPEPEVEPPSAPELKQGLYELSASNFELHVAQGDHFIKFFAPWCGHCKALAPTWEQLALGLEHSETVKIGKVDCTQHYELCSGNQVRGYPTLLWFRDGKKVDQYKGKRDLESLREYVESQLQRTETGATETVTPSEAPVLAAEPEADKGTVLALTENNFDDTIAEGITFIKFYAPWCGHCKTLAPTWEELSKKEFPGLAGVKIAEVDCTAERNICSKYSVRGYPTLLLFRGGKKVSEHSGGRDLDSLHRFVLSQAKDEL
UniProt P07237, residues 18-508: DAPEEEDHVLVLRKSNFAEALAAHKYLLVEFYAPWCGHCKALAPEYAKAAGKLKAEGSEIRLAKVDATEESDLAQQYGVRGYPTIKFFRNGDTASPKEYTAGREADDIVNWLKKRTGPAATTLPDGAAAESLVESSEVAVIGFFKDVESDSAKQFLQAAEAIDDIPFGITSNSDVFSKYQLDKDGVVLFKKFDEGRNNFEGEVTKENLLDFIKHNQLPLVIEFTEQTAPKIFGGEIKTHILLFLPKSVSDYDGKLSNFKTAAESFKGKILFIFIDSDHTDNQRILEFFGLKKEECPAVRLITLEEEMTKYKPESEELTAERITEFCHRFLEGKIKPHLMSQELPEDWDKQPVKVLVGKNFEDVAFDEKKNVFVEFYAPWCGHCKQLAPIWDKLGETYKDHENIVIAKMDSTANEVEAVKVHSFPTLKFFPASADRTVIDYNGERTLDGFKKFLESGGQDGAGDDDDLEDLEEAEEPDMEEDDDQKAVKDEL
UniProt P30101, residues 25-505: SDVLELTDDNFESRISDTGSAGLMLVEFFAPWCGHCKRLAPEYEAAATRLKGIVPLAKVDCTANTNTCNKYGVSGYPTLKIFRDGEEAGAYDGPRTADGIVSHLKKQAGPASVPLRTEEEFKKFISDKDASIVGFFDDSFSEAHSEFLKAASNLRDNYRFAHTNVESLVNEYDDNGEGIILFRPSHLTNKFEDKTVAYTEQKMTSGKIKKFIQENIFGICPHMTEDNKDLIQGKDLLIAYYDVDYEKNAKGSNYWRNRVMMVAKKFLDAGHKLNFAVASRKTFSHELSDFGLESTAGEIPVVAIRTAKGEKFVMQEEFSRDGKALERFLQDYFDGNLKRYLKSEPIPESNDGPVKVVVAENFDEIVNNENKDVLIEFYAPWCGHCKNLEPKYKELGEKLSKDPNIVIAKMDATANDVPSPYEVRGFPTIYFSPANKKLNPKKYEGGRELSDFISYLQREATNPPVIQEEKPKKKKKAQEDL

B1: PDIA6 (1-118), N-terminal domain, HA tag (domain or fragment, UniProt Q15084 20-137)
chain: LYSSSDDVIELTPSNFNREVIQSDSLWLVEFYAPWCGHCQRLTPEWKKAATALKDVVKVGAVDADKHHSLGGQYGVQGFPTIKIFGSNKNRPEDYQGGRTGEAIVDAALSALRQLVKD
B2: PDIA6 (135-421), C-terminal domain, HA tag (domain or fragment, UniProt Q15084 154-440)
chain: SDSSSKKDVIELTDDSFDKNVLDSEDVWMVEFYAPWCGHCKNLEPEWAAAASEVKEQTKGKVKLAAVDATVNQVLASRYGIRGFPTIKIFQKGESPVDYDGGRTRSDIVSRALDLFSDNAPPPELLEIINEDIAKRTCEEHQLCVVAVLPHILDTGAAGRNSYLEVLLKLADKYKKKMWGWLWTEAGAQSELETALGIGGFGYPAMAAINARKMKFALLKGSFSEQGINEFLRELSFGRGSTAPVGGGAFPTIVEREPWDGRDGELPVEDDIDLSDVELDDLGKDEL
B3: PDIA6 (135-421) C174S, HA tag (domain or fragment, UniProt Q15084 154-440)
chain: SDSSSKKDVIELTDDSFDKNVLDSEDVWMVEFYAPWCGHSKNLEPEWAAAASEVKEQTKGKVKLAAVDATVNQVLASRYGIRGFPTIKIFQKGESPVDYDGGRTRSDIVSRALDLFSDNAPPPELLEIINEDIAKRTCEEHQLCVVAVLPHILDTGAAGRNSYLEVLLKLADKYKKKMWGWLWTEAGAQSELETALGIGGFGYPAMAAINARKMKFALLKGSFSEQGINEFLRELSFGRGSTAPVGGGAFPTIVEREPWDGRDGELPVEDDIDLSDVELDDLGKDEL
B4: PDIA6 (135-421) C174A, HA tag (domain or fragment, UniProt Q15084 154-440)
chain: SDSSSKKDVIELTDDSFDKNVLDSEDVWMVEFYAPWCGHAKNLEPEWAAAASEVKEQTKGKVKLAAVDATVNQVLASRYGIRGFPTIKIFQKGESPVDYDGGRTRSDIVSRALDLFSDNAPPPELLEIINEDIAKRTCEEHQLCVVAVLPHILDTGAAGRNSYLEVLLKLADKYKKKMWGWLWTEAGAQSELETALGIGGFGYPAMAAINARKMKFALLKGSFSEQGINEFLRELSFGRGSTAPVGGGAFPTIVEREPWDGRDGELPVEDDIDLSDVELDDLGKDEL
B5: PDIA4, HA tag (enzyme, UniProt P13667 21-645)
chain: VAGAEGPDEDSSNRENAIEDEEEEEEEDDDEEEDDLEVKEENGVLVLNDANFDNFVADKDTVLLEFYAPWCGHCKQFAPEYEKIANILKDKDPPIPVAKIDATSASVLASRFDVSGYPTIKILKKGQAVDYEGSRTQEEIVAKVREVSQPDWTPPPEVTLVLTKENFDEVVNDADIILVEFYAPWCGHCKKLAPEYEKAAKELSKRSPPIPLAKVDATAETDLAKRFDVSGYPTLKIFRKGRPYDYNGPREKYGIVDYMIEQSGPPSKEILTLKQVQEFLKDGDDVIIIGVFKGESDPAYQQYQDAANNLREDYKFHHTFSTEIAKFLKVSQGQLVVMQPEKFQSKYEPRSHMMDVQGSTQDSAIKDFVLKYALPLVGHRKVSNDAKRYTRRPLVVVYYSVDFSFDYRAATQFWRSKVLEVAKDFPEYTFAIADEEDYAGEVKDLGLSESGEDVNAAILDESGKKFAMEPEEFDSDTLREFVTAFKKGKLKPVIKSQPVPKNNKGPVKVVVGKTFDSIVMDPKKDVLIEFYAPWCGHCKQLEPVYNSLAKKYKGQKGLVIAKMDATANDVPSDRYKVEGFPTIYFAPSGDKKNPVKFEGGDRDLEHLSKFIEEHATKLSRTKEEL
B6: PDIA13, HA tag (enzyme, UniProt Q96JJ7 25-454)
chain: KGFVEDLDESFKENRNDDIWLVDFYAPWCGHCKKLEPIWNEVGLEMKSIGSPVKVGKMDATSYSSIASEFGVRGYPTIKLLKGDLAYNYRGPRTKDDIIEFAHRVSGALIRPLPSQQMFEHMQKRHRVFFVYVGGESPLKEKYIDAASELIVYTYFFSASEEVVPEYVTLKEMPAVLVFKDETYFVYDEYEDGDLSSWINRERFQNYLAMDGFLLYELGDTGKLVALAVIDEKNTSVEHTRLKSIIQEVARDYRDLFHRDFQFGHMDGNDYINTLLMDELTVPTVVVLNTSNQQYFLLDRQIKNVEDMVQFINNILDGTVEAQGGDSILQRLKRIVFDAKSTIVSIFKSSPLMGCFLFGLPLGVISIMCYGIYTADTDGGYIEERYEVSKSENENQEQIEESKEQQEPSSGGSVVPTVQEPKDVLEKKKD
B7: PDIA6 (1-118) C36S, HA tag (domain or fragment, UniProt Q15084 20-137)
chain: LYSSSDDVIELTPSNFNREVIQSDSLWLVEFYAPWSGHCQRLTPEWKKAATALKDVVKVGAVDADKHHSLGGQYGVQGFPTIKIFGSNKNRPEDYQGGRTGEAIVDAALSALRQLVKD
B8: PDIA6 (135-421) C171S, HA tag (domain or fragment, UniProt Q15084 154-440)
chain: SDSSSKKDVIELTDDSFDKNVLDSEDVWMVEFYAPWSGHCKNLEPEWAAAASEVKEQTKGKVKLAAVDATVNQVLASRYGIRGFPTIKIFQKGESPVDYDGGRTRSDIVSRALDLFSDNAPPPELLEIINEDIAKRTCEEHQLCVVAVLPHILDTGAAGRNSYLEVLLKLADKYKKKMWGWLWTEAGAQSELETALGIGGFGYPAMAAINARKMKFALLKGSFSEQGINEFLRELSFGRGSTAPVGGGAFPTIVEREPWDGRDGELPVEDDIDLSDVELDDLGKDEL
B9: PDIA8, HA tag (protein, UniProt Q96DN0 26-273)
chain: EVEKSSDGPGAAQEPTWLTDVPAAMEFIAATEVAVIGFFQDLEIPAVPILHSMVQKFPGVSFGISTDSEVLTHYNITGNTICLFRLVDNEQLNLEDEDIESIDATKLSRFIEINSLHMVTEYNPVTVIGLFNSVIQIHLLLIMNKASPEYEENMHRYQKAAKLFQGKILFILVDSGMKENGKVISFFKLKESQLPALAIYQTLDDEWDTLPTAEVSVEHVQNFCDGFLSGKLLKENRESEGKTPKVEL

The molecules below were run against T1, Thioredoxin-interacting protein (Txnip), N-terminal tandem Strep/FLAG tag (assay: pull-down; HEK293TN cells co-transfected with the indicated plasmids; lysis in 0.5% Triton X-100, 150 mM NaCl, 50 mM Tris, pH 7.8; Strep/FLAG-tagged Txnip (or Arrdc1-4) held on magnetic Streptactin beads; wash with 0.5% Triton X-100, 500 mM NaCl, 50 mM Tris, pH 7.8; eluates by SDS-PAGE and immunoblot).

Q: Which binding does the source give for B1 here?
A: binds

Q: For B2, which binding is on record?
A: binds

Q: With B3 as the molecule, how does the binding read?
A: binds

Q: With B4 as the molecule, how does the binding read?
A: binds

Q: Which binding does the source give for B5 here?
A: binds

Q: Which binding does the source give for B6 here?
A: binds

Q: How did the binding turn out when B7 was run?
A: no binding

Q: With B8 as the molecule, how does the binding read?
A: no binding

Q: How did the binding turn out when B9 was run?
A: no binding

Target: T1, Thioredoxin-interacting protein (Txnip), N-terminal tandem Strep/FLAG tag
Experiment: as above
Remark: another data set of the same source

Q: With “PDIA15, HA tag (from UniProt Q8NBS9 33-432) (enzyme)” as the molecule, how does the binding read?
A: binds

Q: “PDIA9, HA tag (from UniProt P30040 33-261)” was tested. Which binding did it give?
A: no binding

Q: With “PDI (protein disulfide isomerase), HA tag (from UniProt P07237 18-508) (enzyme)” as the molecule, how does the binding read?
A: binds

Q: With “PDIA3, HA tag (from UniProt P30101 25-505) (enzyme)” as the molecule, how does the binding read?
A: binds
